The text below walks through data of PubChem BioAssay (NCI).

Molecules are shown by their SMILES. Where “and” joins values, the source holds several entries; their conditions need not be identical. Identical values can stand only once.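 How tested: cells in 96-well plates exposed to compound for 48 hours at five concentrations. Abbreviation: GI50, concentration required for 50% inhibition of growth. TGI: total growth inhibition.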 Where only a bound is given, the exact number is not on record here.

This test concerns NCI-H322M lung. The experiment in a line: DTP human tumour cell line panel, 48 h.
As a reminder, the TGI is the concentration at which net growth stops. Higher therefore signals less potent growth arrest. Consider `O=[N+]([O-])c1cc(-c2nc(-c3ccccc3)c(-c3ccccc3)[nH]2)c(O)c([N+](=O)[O-])c1`, for which the TGI turned out to be 52.4 µM.
Same read-out and setting: the value for `CCOC(=O)c1c(N2CCOCC2)[nH]c(=O)c(C(c2ccco2)c2c(O)c(C(=O)OCC)c(N3CCOCC3)[nH]c2=O)c1O` was > 100 µM.
One may read the GI50 as the concentration that inhibits growth by half. In the case of `COc1ccc2c(c1)C(=O)c1c-2n(CCCI)c(=O)c2cc([N+](=O)[O-])ccc12`, the GI50 is 1.24 µM and 2.76 µM; the TGI is 50 µM and > 100 µM.
As for `Cc1cccc(NC(=O)c2cccc([N+](=O)[O-])c2O)c1C`, the TGI is > 90.6 µM.
As to `Cn1cc(-c2ccc(-c3ccc(C4=NC5(CC5)C(=O)N4C[C@@H]4CCN(C(=O)C5CC5)C4)cc3)cc2)cn1`, the GI50 is 30 µM and the TGI is > 100 µM.
As to `O=C(O)CCc1nn2c(nc1=O)sc1ccc3ccccc3c12`, the TGI was > 100 µM.
In the case of `Cc1cnc(C(=O)Nc2nc3ccc(S(=O)(=O)Nc4ccc(C5(C(F)(F)F)CC5)cc4)cc3[nH]2)cn1`, the GI50 is 0.582 µM and the TGI came out at 9.78 µM.
With `CC1OC(n2cc(F)c(=O)[nH]c2=O)C=CC1=O` (configuration not stated), the TGI was > 100 µM.
For `C[N+]1=C(/C=C\C=C\c2ccccc2)C(C)(C)c2ccccc21`, the GI50 is 3.99 µM and the TGI was 15 µM.
Take `CC1=C(C)Cc2c(O)ccc(O)c2C1`: the TGI was > 100 µM.
On the same count and under the same terms, the value for `Cn1cc2ccccc2c1-c1nc(F)nc(OCC(=O)[C@H]2CCC3[C@@H]4CCC5=CC(=O)CC[C@]5(C)C4[C@@H](O)C[C@@]32C)n1` (some centres not stated) was 37.4 µM; that for `COc1cccc(NC(=O)/C(Cc2nc3ccccc3nc2C)=N/NC(=O)C[n+]2ccccc2)c1` was > 100 µM.
Take `Cc1ncc(C(=O)Nc2ccc(CN3CCN(C)CC3)c(C(F)(F)F)c2)cc1C#Cc1cnc(N)cc1C#N`: the GI50 is 0.778 µM and the concentration for total growth inhibition (TGI) was 2.8 µM.
Turning to `CC1(C)C2C=CC1C(=O)CC2` (configuration not stated), the TGI was > 100 µM.
The same measure, in the same setting: the same measure for `Nn1c(Cc2ccc([N+](=O)[O-])cc2)n[nH]c1=O`: > 100 µM; for `O=[N+]([O-])c1ccc(N/N=C/c2ccc(OCCCCCCCCCCCO)cc2)c([N+](=O)[O-])c1`: > 100 µM.
For `CCN1CCN(CC(=O)N2c3cccc4cccc(c34)N(C(=O)CN3CCN(CC)CC3)C2c2cn(-c3ccccc3)nc2-c2cccc([N+](=O)[O-])c2)CC1`, the GI50 was 1.81 µM and the TGI is 3.82 µM.
Consider `Cc1cc(C)c(-n2c(-c3ccc(Br)cc3)cs/c2=N\N=C2C=C(C(C)(C)C)C(=O)C(C(C)(C)C)=C2)c(C)c1`, for which the TGI is > 100 µM.
On the same count and under the same terms, the value for `CCCCCCCCCCCCCCCCCCN(C)CC(COP(=O)([O-])OCC[N+](C)(C)C)OC` (configuration not stated) was 47.4 µM; that for `CC(C)(c1ccccc1)c1ccc(OC#N)cc1` was > 100 µM; that for `Cc1ccccc1S(=O)(=O)Nn1cnc2ccc(S(=O)(=O)Nc3ccc(Cl)cc3)cc2c1=O` was > 100 µM.
For the compound `COc1cc(CNNC(N)=S)cc(OC)c1OC`, the TGI is > 100 µM.
As to `CN(C)c1ccc(/C=C/c2cc[n+](C)c(/C=C/c3ccc(N(C)C)cc3)c2)cc1`, the GI50 is 1.85 µM and the TGI came to 11.4 µM.
Turning to `CCCSS[C@H]1NC(=O)[C@H]1NC(=O)COc1ccccc1`, the TGI is > 100 µM.
Same read-out and setting: the value for `COc1cc2c(cc1OC)C13CCN4CC5CCOC6CC(=O)N2C1C6C5CC43` (configuration not stated) was > 100 µM.
